In patent publication US7592316B2, “Peptides as NS3-serine protease inhibitors of hepatitis C virus” (Schering Corporation, priority 2000, dated 2009):
*1 amine or outer side, *2 acyl side, *3 side chain or, on linkers, in order; H or OH if unused. Where a SMILES comes first, the peptide text is derived from it. [ ]: non-standard residue; d: D form. The star is where a group is joined. ξ: configuration not given here. X12 = CCC[C@H](N[*:1])C(=O)C(=O)[*:2]; Isobutyloxycarbonyl = CC(C)COC(=O)*; Chg = N[C@H](C(=O)O)C1CCCCC1; Phg = N[C@H](C(=O)O)c1ccccc1; ξPip = O=C(O)C1CCCCN1

The molecules below were run against HCV NS3/NS4A protease (strain 1a) (Hepatitis C virus genotype 1a, UniProt P27958) (assay: biochemical). Conditions: Table 4; HCV NS3/NS4A protease, spectrophotometric assay, 30° C., pH 6.5; read-out: Ki* Range.
With CCC[C@H](NC(=O)C1CCCCN1C(=O)[C@@H](NC(=O)OCC(C)C)C1CCCCC1)C(=O)C(=O)NCC(=O)N[C@H](C(=O)N(C)C)c1ccccc1 (stereo partly drawn) [iBoc-Chg-Pip-nV- (CO)-G-G(Ph)- N(Me)2] (Isobutyloxycarbonyl-[Chg][ξPip][X12]G[Phg]-NMe2) the Ki was > 1000 nM.

Same assay, conditions: Table 5; HCV NS3/NS4A protease, 30° C., pH 6.5; read-out: Ki* Range
For C=CCNC(=O)C(=O)C(CCC)NC(=O)[C@@H]1[C@H]2[C@@H](CN1C(=O)C(NC(=O)OC1CCCC1C)C1CCCCC1)C2(C)C (some centres unmarked) [drawing 2030], the Ki was 1 to 100 nM.
C=CCCC(NC(=O)[C@@H]1[C@@H]2[C@H](CN1C(=O)[C@@H](NC(=O)OC(C)(C)C)C1CCCCC1)C2(C)C)C(=O)C(=O)NCCC1=CCCCC1 (some centres unmarked) [drawing 2042] was tested, and the Ki was 101 to 1000 nM.
C=CCC(NC(=O)[C@@H]1[C@@H]2[C@H](CN1C(=O)[C@@H](NC(=O)NC(C)(C)C)C(C)(C)C)C2(C)C)C(=O)C(=O)NCC(=O)NCc1ccccc1 (some centres unmarked) [drawing 2089] gave a Ki of 1 to 100 nM.

Same assay, conditions: Table 6; HCV NS3/NS4A protease, 30° C., pH 6.5; read-out: Ki*
With C=CCNC(=O)C(=O)C(CCC)NC(=O)[C@@H]1[C@@H]2[C@H](CN1C(=O)C(NC(=O)O[C@@H]1CCOC1)C1CCCCC1)C2(C)C (some centres unmarked) [drawing 2132] the Ki was 101 to 1000 nM.
In the case of CN(C)C(=O)[C@@H](NC(=O)CNC(=O)C(=O)C(CCC(F)(F)F)NC(=O)[C@@H]1[C@H]2CC(C)(C)O[C@H]2CN1C(=O)[C@@H](NC(=O)OC(C)(C)C)C1CCCCC1)c1ccccc1 (some centres unmarked) [drawing 2291], the Ki is reported as 1 to 100 nM.
Work on CC1(OC(=O)N[C@H](C(=O)N2C[C@H]3[C@@H]([C@H]2C(=O)NC(CC2CC2)C(=O)C(N)=O)C3(C)C)C2CCCCC2)CCCCC1 (some centres unmarked) [drawing 2307] yielded a Ki of 1 to 100 nM.
In the case of CC(C)NC(=O)N[C@H](C(=O)N1C[C@H]2[C@@H]([C@H]1C(=O)NC(CC1CC1)C(=O)C(N)=O)C2(C)C)C(C)(C)C (some centres unmarked) [drawing 2312], the Ki is reported as 101 to 1000 nM.
CN(C)C(=O)[C@@H](NC(=O)CNC(=O)C(=O)C(CC1CC1)NC(=O)[C@@H]1[C@@H]2[C@H](CN1C(=O)[C@@H](NC(=O)OC(C)(C)C)C1CCC(C(C)(C)C)CC1)C2(C)C)c1ccccc1 (some centres unmarked) [drawing 2333] was tested, and the Ki was 1 to 100 nM.
For CN(C)C(=O)[C@@H](NC(=O)CNC(=O)C(=O)C(CC1CCC1)NC(=O)[C@@H]1[C@H]2CC(C)(C)O[C@H]2CN1C(=O)[C@@H](NC(=O)OC(C)(C)C)C1CCCCC1)c1ccccc1 (some centres unmarked) [drawing 2355], the Ki was 1 to 100 nM.
CN(C)C(=O)[C@@H](NC(=O)CNC(=O)C(=O)C(CCC(F)(F)F)NC(=O)[C@@H]1[C@H]2CC(C)(C)O[C@H]2CN1C(=O)[C@@H](NC(=O)NC(C)(C)C)C1CCCCC1)c1ccccc1 (some centres unmarked) [drawing 2397] gave a Ki of 1 to 100 nM.
